Laboratory results: the RNAGym collection of RNA variant scans (doi:10.7554/elife.90254)
Read counts are not given, so values of variants with three or more changes are uncertain.

B1: LINE1-mini (parent)
chain: GGCAGAGCUCAACACAGCGUGGCAAAGUGGCUGUGGCUAGACUGCC

Variants of: B1
Assay: self-cleavage, relative activity (ratio to wild type); higher = more cleavage; in vitro, sequencing; the parent is a self-cleaving ribozyme

Variant	self-cleavage
A6C G33U U34G	0.05
A6C G35A G40U	0.11
A6C G35U A39C	0.11
A6C G35U C46A	0.02
A6C G35U G36U A39C	0.04
A6C G35U U43A	0.09
A6C G36C G40A	0.15
A6C U9A A12U	0.29
A6C U9A A25G G27A	0.06
A6C U9A A39C	0.08
A6C U9A C13G A25C C31U G36U C37U	0.6
A6C U9A G21U G36U	0.05
A6C U9A G30C C37G	0.02
A6C U9A U20C G40U C45U	0.08
A6C U9C A11G C45G	0.01
A6C U9C C13A G30U C37G A41U C42A	0.01
A6C U9C G19A A26C G36A	0.06
A6C U9C G21C G30U	0
A6C U9C G22U G29A C37U A39G C42A	0
A6C U9C U28G G35U C45A	0
A6C U9G A11C G29U U38A	0
A6C U9G A11G C23A G44C	0.02
A6C U9G A16G G19A G21C	0.05
A6C U9G C10U A41U	0.05

Variant	self-cleavage
A6C U9G C13A C18A C31U G36C	0.03
A6C U9G C13G C37U	0.02
A6C U9G C45A	0.02
A6C U9G G27C G33U C42A	0.06
A6C U9G G33U C37A	0.03
A6C U9G U28C	0.04
A6C U20A A39G	0.1
A6C U20A C31G A41U C46G	0.04
A6C U20A C37G	0
A6C U20A G35A C37U	0.08
A6C U20A U34C	0.24
A6C U20C C37G A39C C45G	0
A6C U20G G21C	0.14
A6C U20G G27A C31U C42A	0.06
A6C U20G G29C U32A G36C G44C	0.04
A6C U28A A39U	0.08
A6C U28A G40U	0.2
A6C U28G G33C G36U	0.06
A6C U28G G44C	0.14
A6C U28G U32C G36A A41G C42U	0
A6C U32A G33A G35U	0.03
A6C U32C A39U C42A U43C G44A	0
A6C U32G C45U	0.09
A6C U32G G33C	0.03

Variant	self-cleavage
A6C U34C G35A	0.09
A6C U34G C46A	0.05
A6C U34G G36A C46U	0.04
A6C U43A C45G	0.07
A6G A11C A14C A26G C46G	0
A6G A11C C15A G27C C31U	0.01
A6G A11C C23G U34C U43C C45G	0.01
A6G A11C G22A	0
A6G A11G A12C G36U G44U	0.01
A6G A11G A25U C45U	0
A6G A11G G17A U32G G40C	0.01
A6G A11G G19C A24U	0
A6G A11G G36A A39G	0.01
A6G A11U A24G	0.03
A6G A11U C13G G21C U34C	0.01
A6G A11U C18G	0.02
A6G A11U G19C C23U	0.01
A6G A11U G19U	0.02
A6G A12C A14C C42U	0.03
A6G A12C G27C	0.05
A6G A12G A26G G35C C37G	0.01
A6G A12G C13U U20G A26G G36C	0
A6G A12G C31A G33U	0.08
A6G A12G C46U	0.01

Variant	self-cleavage
A6G A12U A24U	0.08
A6G A12U A26G U32A G40U	0.06
A6G A12U A39G C45U	0
A6G A12U G44C C46A	0.02
A6G A14C G17U	0.18
A6G A14C G29A A39C	0.11
A6G A14G A24U G27C	0.12
A6G A14G G22A	0.61
A6G A14G G27A U28G U34A	0
A6G A14G G29U G30U G36U G44A	0.01
A6G A14G G30A U43A	0.08
A6G A14G G36U C45U	0.04
A6G A14G U28C G33A G44U	0.11
A6G A14G U32G A41C	0
A6G A14U A26C G30C	0.14
A6G A14U C42U	0.06
A6G A14U G22A	0.2
A6G A14U G29C A41U C42U G44U	0.03
A6G A14U G30U U34A	0.03
A6G A14U G36U	0.5
A6G A16C C18U U32A	0.03
A6G A16G A25C	0.24
A6G A16G G29U U34C G40U C42A	0.01
A6G A16G G40A	0.02

Variant	self-cleavage
A6G A16U C18G C31A	0.08
A6G A16U G21C A26U	0.02
A6G A16U G22C G27U G30U C37A	0.05
A6G A24C A25U U28G	0.03
A6G A24G C45A	0.13
A6G A24G G35U U38A	0.03
A6G A24U A39C	0.06
A6G A24U C37U G40A	0.08
A6G A26C U34A	0.04
A6G A26C U43C	0.08
A6G A26U C31A	0
A6G A26U C45A	0.15
A6G A26U G27A G30C	0.06
A6G A26U G35C	0.04
A6G A39U C45U	0.17
A6G A39U G40U	0.15
A6G A41G C45A	0.04
A6G C8A A14C A26U G33C C45A	0.07
A6G C8A A14U A39C	0.06
A6G C8A A25U G30A	0.36
A6G C8A C13A G30C	0.16
A6G C8A C37A G40C	0.01
A6G C8A U9A	0.32
A6G C8A U28G G44A	0.03

Variant	self-cleavage
A6G C8A U32G	0.27
A6G C8G A11C C15G G27U U28G	0.01
A6G C8G A11U U20C G21A A24C G30A C37A	0.02
A6G C8G C10A A12U C23A A24G C37U	0.01
A6G C8G C13A C15U C23G G27U U28G G36U C45A	0.01
A6G C8G C18G G29A G30C	0.65
A6G C8G C23G G29U G44U	0
A6G C8G G19C G27A U28C G44U	0.02
A6G C8G G29U	1.16
A6G C8G G44U	0.02
A6G C8G U9G G30C	0.02
A6G C8U A11G A25C	0.02
A6G C8U A12G G40A	0.19
A6G C8U A14U C18A G29C G33C U38A A39C	0.02
A6G C8U A25U C31G U34C	0.24
A6G C8U C13G U34C C37G	0.09
A6G C8U C15G A26U	0.2
A6G C8U C15G G19U A24C A25G	0.04
A6G C8U C15U G19A A24C A39U	0.24
A6G C8U C15U G19U	0.22
A6G C8U G35A	0.05
A6G C8U U9C A11G C46U	0.04
A6G C8U U9G U34A	0.07
A6G C8U U32A A41G	0.15

Variant	self-cleavage
A6G C10A A12G A14C G29U	0.01
A6G C10A A12G U38G	0
A6G C10A A12U G27A	0.01
A6G C10A A14C G29A	0
A6G C10A A16U G40C	0
A6G C10A C15U G33U	0.01
A6G C10A C23A A25C	0.01
A6G C10A C46A	0
A6G C10A G17U G29U C37G A39C G40U A41C U43C	0
A6G C10A G22A	0.01
A6G C10A G29U	0.07
A6G C10A G35U A41G	0.01
A6G C10A U34A C42A	0.01
A6G C10G A12G A24U U32C U34C	0.06
A6G C10G G17A G40A	0.04
A6G C10G G22A	0.05
A6G C10G G29A A41G	0.01
A6G C10U A11U U32G	0.03
A6G C10U A41C	0.02
A6G C10U C13G	0
A6G C10U C15A A41U G44A	0.04
A6G C10U C18G G21C A26G G35C	0.02
A6G C10U U20G	0.02
